{"source": "the supplement of paper PMC12217912", "parents": {"B1": {"name": "TEV protease; numbered along this chain (parent)", "chain": "MGESLFKGPRDYNPISSSICHLTNESDGHTTSLYGIGFGPFIITNKHLFRRNNGTLVVQSLHGVFKVKDTTTLQQHLVDGRDMIIIRMPKDFPPFPQKLKFREPQREERICLVTTNFQTKSMSSMVSDTSCTFPSGDGIFWKHWIQTKDGQCGSPLVSTRDGFIVGIHSASNFTNTNNYFTSVPKNFMELLTNQEAQQWVSGWRLNADSVLWGGHKVFMVKPEEPFQPVKEATQL"}}, "note": "This is one part of the list. Sequences were assembled here from the parent chain. Values near 0.05 are background.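 Also: Bxb1 expression induced with 0.2% (w/v) L-rhamnose at OD600 near 0.5, cultures sampled hourly, flipped fraction per protease–substrate barcode pair counted by paired-end Illumina sequencing.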", "data": [{"variants_of": "B1", "assay": "raw area under fraction-flipped curve 0-4 h after induction (AUC4h, not background-subtracted), DNA-recorder readout of cleavage of the substrate (dimensionless); higher = more cleavage of the substrate by the protease variant", "conditions": "temperature: 34 °C; time window: 0-4 h after rhamnose induction", "values": [{"variant": "S135E", "area with substrate ENHYFQS": 0.0751, "area with substrate ENIYFQS": 0.0604, "area with substrate ENPYFQS": 0.0681, "area with substrate ENQYFQS": 0.0578, "area with substrate ENRYFQS": 0.0674}, {"variant": "K7R", "area with substrate ENHYFQS": 0.0508, "area with substrate ENQYFQS": 0.0642, "area with substrate ENSYFQS": 0.0559, "area with substrate ENWYFQS": 0.0049}, {"variant": "Q227H", "area with substrate ENEYFQS": 0.0608, "area with substrate ENFYFQS": 0.0439, "area with substrate ENGYFQS": 0.0755, "area with substrate ENKYFQS": 0.0589, "area with substrate ENQYFQS": 0.059, "area with substrate ENSYFQS": 0.0623}, {"variant": "V58A", "area with substrate ENIYFQS": 0.114, "area with substrate ENNYFQS": 0.083, "area with substrate ENQYFQS": 0.036}, {"variant": "N193V", "area with substrate ENSYFQS": 0.0523}, {"variant": "F187K", "area with substrate ENEYFQS": 0.0583, "area with substrate ENGYFQS": 0.0427, "area with substrate ENKYFQS": 0.0512, "area with substrate ENMYFQS": 0.0531, "area with substrate ENPYFQS": 0.0402, "area with substrate ENQYFQS": 0.0507, "area with substrate ENRYFQS": 0.0906, "area with substrate ENVYFQS": 0.0624}, {"variant": "L235D", "area with substrate ENEYFQS": 0.0493, "area with substrate ENFYFQS": 0.0709, "area with substrate ENGYFQS": 0.0674, "area with substrate ENMYFQS": 0.0835, "area with substrate ENPYFQS": 0.0659, "area with substrate ENSYFQS": 0.075}, {"variant": "D137W", "area with substrate ENQYFQS": 0.0503, "area with substrate ENRYFQS": 0.0533, "area with substrate ENSYFQS": 0.0373, "area with substrate ENWYFQS": 0.0546}, {"variant": "Q75L", "area with substrate ENQYFQS": 0.063, "area with substrate ENSYFQS": 0.0581}, {"variant": "G214I", "area with substrate ENFYFQS": 0.049, "area with substrate ENTYFQS": 0.0559}, {"variant": "G214T", "area with substrate ENEYFQS": 0.0611, "area with substrate ENIYFQS": 0.0753, "area with substrate ENSYFQS": 0.0517, "area with substrate ENWYFQS": 0.0574}, {"variant": "F163C", "area with substrate ENHYFQS": 0.0764, "area with substrate ENIYFQS": 0.116}, {"variant": "F173K", "area with substrate ENHYFQS": 0.0718, "area with substrate ENIYFQS": 0.0704, "area with substrate ENNYFQS": 0.0846, "area with substrate ENQYFQS": 0.0543}, {"variant": "D82S", "area with substrate ENFYFQS": 0.063, "area with substrate ENGYFQS": 0.0623, "area with substrate ENHYFQS": 0.0468, "area with substrate ENSYFQS": 0.0686, "area with substrate ENTYFQS": 0.0535}, {"variant": "N206M", "area with substrate ENEYFQS": 0.0712, "area with substrate ENKYFQS": 0.0628, "area with substrate ENNYFQS": 0.0662}, {"variant": "S130T", "area with substrate ENIYFQS": 0.148, "area with substrate ENKYFQS": 0.0803, "area with substrate ENQYFQS": 0.0498, "area with substrate ENSYFQS": 0.053, "area with substrate ENTYFQS": 0.0759}, {"variant": "E103N", "area with substrate ENKYFQS": 0.0616, "area with substrate ENPYFQS": 0.059, "area with substrate ENRYFQS": 0.0687, "area with substrate ENTYFQS": 0.0589, "area with substrate ENVYFQS": 0.0671}, {"variant": "P89D", "area with substrate ENGYFQS": 0.0503, "area with substrate ENNYFQS": 0.0614, "area with substrate ENPYFQS": 0.0561, "area with substrate ENSYFQS": 0.0415, "area with substrate ENVYFQS": 0.0768}, {"variant": "V78Q", "area with substrate ENNYFQS": 0.0654, "area with substrate ENYYFQS": 0.042}, {"variant": "S209T", "area with substrate ENEYFQS": 0.0828, "area with substrate ENFYFQS": 0.0625, "area with substrate ENPYFQS": 0.0482, "area with substrate ENRYFQS": 0.0561}, {"variant": "G8H", "area with substrate ENIYFQS": 0.125, "area with substrate ENVYFQS": 0.0584, "area with substrate ENYYFQS": 0.0532}, {"variant": "D79Y", "area with substrate ENFYFQS": 0.0522, "area with substrate ENHYFQS": 0.0519, "area with substrate ENPYFQS": 0.0572, "area with substrate ENRYFQS": 0.0503, "area with substrate ENVYFQS": 0.0679}, {"variant": "S201F", "area with substrate ENHYFQS": 0.0725, "area with substrate ENIYFQS": 0.0834, "area with substrate ENNYFQS": 0.0494, "area with substrate ENRYFQS": 0.0543, "area with substrate ENSYFQS": 0.0564}, {"variant": "G213E", "area with substrate ENFYFQS": 0.0595, "area with substrate ENHYFQS": 0.0503, "area with substrate ENIYFQS": 0.059, "area with substrate ENKYFQS": 0.0692, "area with substrate ENNYFQS": 0.0542, "area with substrate ENPYFQS": 0.0846, "area with substrate ENQYFQS": 0.0678, "area with substrate ENSYFQS": 0.059, "area with substrate ENTYFQS": 0.0291}, {"variant": "Q97V", "area with substrate ENQYFQS": 0.0675, "area with substrate ENRYFQS": 0.0479, "area with substrate ENVYFQS": 0.0674}, {"variant": "V157T", "area with substrate ENGYFQS": 0.0562, "area with substrate ENHYFQS": 0.062, "area with substrate ENQYFQS": 0.0498, "area with substrate ENSYFQS": 0.0947}]}]}
